{"source": "PubChem BioAssay AID686979", "about": "(National Center for Advancing Translational Sciences (NCATS), 2013)", "note": "Several values for one entry are separate records, joined by “and”; a condition that tells them apart may be missing. Equal values may be shown once. The whole screen tested about 420,000 compounds, of which about 50,000 (12%) were called active. Inconclusive results, whose numbers are uncertain, are shown with a selection of clear calls. Calls follow the shape of the dose curve; as a rule, active = well fitted inhibition curve with a large enough effect; inconclusive = small, poorly fitted or top-dose-only effect; inactive = flat fitted curve, though single readings scatter. Potencies beside an inconclusive call are fits to weak or partial responses and may not hold up. % is scaled to controls: 0 for no effect and ±100 for the full control effect; potency is read from the fitted curve at half-maximal effect; tags tell the direction and shape of the fitted curve.", "data": [{"assay": "qHTS for Inhibitors of human tyrosyl-DNA phosphodiesterase 1 (TDP1): qHTS in cells in presence of CPT; also: nearly all actives have a fitted effect of over 55% in size", "conditions": "chicken DT40 Tdp1-/-;hTDP1 cells + 20 nM CPT, ATP luminescence, 48 h; activity change, negative = growth inhibition: at 46.2 µM (top of the series)", "how_it_was_run": "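Chicken DT40 Tdp1-/- cells complemented with human TDP1, 400 cells/well, exposed to compounds plus 20 nM camptothecin for at least 48 h at 37 C; viability read as ATP content by CellTiter-Glo luminescence.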", "values": [{"smiles": "CC(=O)N1c2ccc(S(=O)(=O)N3CCN(c4cc(Cl)ccc4C)CC3)cc2CC1C", "note": "(configuration not stated)", "Potency": "inconclusive: 5.8 µM [inhibitor, full curve, poor fit]"}, {"smiles": "CCc1ccc(NC(=O)Nc2ccon2)cc1", "Potency": "inconclusive: 29.1 µM [inhibitor, single point]"}, {"smiles": "COc1ccccc1NC(=O)C(=O)c1cn(CC(=O)N2CCCC2)c2ccccc12", "Potency": "inconclusive: 29.1 µM [inhibitor, single point]"}, {"smiles": "O=C(NCc1ccccn1)C1CC(c2ccc(F)cc2)=NO1", "note": "(configuration not stated)", "activity change, negative = growth inhibition": "inactive: -13.1%"}, {"smiles": "CCOc1cc(N2CCOCC2)c(OCC)cc1NC(=O)[C@H](C)NC(=O)c1ccco1", "activity change, negative = growth inhibition": "inactive: -16.5%"}, {"smiles": "Cc1ccc(NCC(=O)N=Nc2c(O)[nH]c3ccc([N+](=O)[O-])cc23)cc1", "Potency": "inconclusive: 16.4 µM [inhibitor, single point]"}, {"smiles": "O=c1c(-c2cc(-c3ccc(F)cc3)nc3c2COc2ccc(Cl)cc2-3)coc2ccc(F)cc12", "activity change, negative = growth inhibition": "inactive: 3.41%"}, {"smiles": "COC(=O)c1cccc(-n2sc3ccccc3c2=O)c1", "Potency": "active: 2.06 µM"}, {"smiles": "Cc1[nH]c2ccc(C(=O)OC(C)C(=O)NCc3ccccc3)cc2c1C", "note": "(configuration not stated)", "Potency": "active: 13 µM"}, {"smiles": "CCCCn1nnnc1C(c1cc2ccccc2o1)N1CCN(CC(=O)N2CCCC2)CC1", "note": "(configuration not stated)", "activity change, negative = growth inhibition": "inactive: -17.6%"}, {"smiles": "CCOC(=O)c1oc2ccccc2c1NC(=O)COc1ccc(F)cc1", "Potency": "inconclusive: 11.6 µM [inhibitor, partial curve]"}, {"smiles": "COc1ccc(C2/C=C\\CN(S(=O)(=O)/C=C/c3ccccc3)[C@H](Cc3ccccc3)C(=O)N2Cc2ccc(F)cc2)cc1", "note": "(some centres not stated)", "Potency": "inconclusive: 25.9 µM [inhibitor, single point]"}, {"smiles": "COc1ccc(NC(=O)COC(=O)c2ccc(OCc3ccc(Cl)cc3Cl)c(OC)c2)c(OC)c1", "Potency": "inconclusive: 23.1 µM [inhibitor, single point]"}, {"smiles": "CCCN(CCC)C(=O)CC(c1ccccc1)c1ccco1", "note": "(configuration not stated)", "Potency": "inconclusive: 29.1 µM [inhibitor, single point]"}, {"smiles": "O=[N+]([O-])c1ccc(C=CC=Cc2ccccc2)cc1", "activity change, negative = growth inhibition": "inactive: -22.9%"}, {"smiles": "Fc1ccc(N2C(=S)SC(=Nc3ccccc3)C2=Nc2ccccc2)cc1", "Potency": "inconclusive: 29.1 µM [inhibitor, single point]"}, {"smiles": "NNC(=O)CNC(c1ccccc1)c1cc(Br)ccc1NC(=O)c1ccc(Br)cc1", "note": "(configuration not stated)", "Potency": "inconclusive: 23.1 µM [inhibitor, single point]"}, {"smiles": "OCCNC(=S)Nc1ccc(Oc2ccccc2)cc1", "activity change, negative = growth inhibition": "inactive: -11.1%"}, {"smiles": "CCOc1ccccc1N(CC(=O)Nc1ccc(OC)cc1)S(=O)(=O)c1ccccc1", "Potency": "inconclusive: 29.1 µM [inhibitor, single point]"}, {"smiles": "CCOc1ccc(N2C(=O)CC(N(Cc3ccco3)C(C)=O)C2=O)cc1", "note": "(configuration not stated)", "activity change, negative = growth inhibition": "inactive: 11.7%"}, {"smiles": "O=C(CCCCCn1c(=O)[nH]c2ccccc2c1=O)N1CCN(c2ccc(Cl)cc2)CC1", "Potency": "inconclusive: 20.6 µM [inhibitor, single point]"}, {"smiles": "O=C(CSc1nc2c([nH]c3ccccc32)c(=O)n1-c1cccc(Cl)c1)NCc1ccccc1", "Potency": "inconclusive: 29.1 µM [inhibitor, single point]"}, {"smiles": "Cc1nc2sc(C(c3cccc(F)c3)N3CCC(O)CC3)c(O)n2n1", "note": "(configuration not stated)", "activity change, negative = growth inhibition": "inactive: -3.08%"}, {"smiles": "CCOC(=O)[C@@H](C)NS(=O)(=O)N(Cc1ccccc1)[C@H](C(=O)OC)C(C)C", "Potency": "inconclusive: 35.5 µM [inhibitor, single point] and inconclusive: 29.1 µM [inhibitor, single point]"}, {"smiles": "COc1ccc(/C=N/Nc2nc(Nc3ccccc3)nc(N3CCCCC3)n2)c(OC)c1", "Potency": "inconclusive: 29.1 µM [inhibitor, single point]"}, {"smiles": "COc1cc2c(cc1OC)C(COc1cc(C)cc(C)c1)N(C(=O)c1ccc(S(=O)(=O)N3CCCC3)cc1)CC2", "note": "(configuration not stated)", "Potency": "inconclusive: 29.1 µM [inhibitor, single point]"}, {"smiles": "CCc1c(C(=O)Nc2ccncc2)csc1C", "Potency": "inconclusive: 16.4 µM [inhibitor, single point]"}, {"smiles": "Cc1ccccc1-n1c(SCc2csc(Nc3ccccc3)n2)nnc1-c1cccnc1", "Potency": "active: 11.6 µM"}, {"smiles": "O=C(CSc1ncn[nH]1)N1N=C2/C(=C/c3ccccc3)CCCC2C1c1ccccc1", "note": "(configuration not stated)", "Potency": "inconclusive: 29.1 µM [inhibitor, single point]"}, {"smiles": "Cc1ccc(NC(=O)c2ccc3ccccc3n2)cc1S(=O)(=O)N(C)C", "Potency": "inconclusive: 29.1 µM [inhibitor, single point]"}, {"smiles": "O=C(Nc1ccc(Cl)cc1)c1cc(Br)ccc1OCC(=O)N1CCOCC1", "Potency": "inconclusive: 25.9 µM [inhibitor, single point]"}, {"smiles": "CC(C)C1Oc2ccccc2N(CC(=O)N(Cc2ccccn2)C2CC2)C1=O", "note": "(configuration not stated)", "Potency": "inconclusive: 29.1 µM [inhibitor, single point]"}, {"smiles": "O=Cc1ccc(-c2c(-c3ccccc3)oc3c2C(OCCCCO)CCC3)o1", "note": "(configuration not stated)", "Potency": "inconclusive: 29.1 µM [inhibitor, single point]"}, {"smiles": "CCNc1ncc2nc(C)c(=O)n(C)c2n1", "activity change, negative = growth inhibition": "inactive: -1.15%"}, {"smiles": "CCc1nc2ccc(C(=O)N3CCN(c4cccc(OC)c4)CC3)cc2nc1CC", "Potency": "inconclusive: 29.1 µM [inhibitor, single point] and inconclusive: 18.4 µM [inhibitor, single point]"}, {"smiles": "c1ccc(Nc2nc(N3CCOCC3)nc(N3CCOCC3)n2)cc1", "Potency": "active: 16.4 µM"}, {"smiles": "COc1ccc2noc3c2c1C(=O)c1ccccc1-3", "Potency": "active: 14.6 µM"}, {"smiles": "CN(CCO)c1ccc(/C=N/Nc2nncc3ccccc23)cc1", "Potency": "inconclusive: 23.1 µM [inhibitor, single point]"}, {"smiles": "COc1ccc(OCCOc2ccc(N(C)S(=O)(=O)c3ccccc3)cc2)cc1", "Potency": "inconclusive: 23.1 µM [inhibitor, partial curve]"}, {"smiles": "Cc1ccccc1NC(=O)c1sc2nc3c(c(-c4ccco4)c2c1N)CCC3", "Potency": "inconclusive: 18.4 µM [inhibitor, single point]"}, {"smiles": "COC(=O)C1=Cc2cc(OC)cc([N+](=O)[O-])c2OC1N1CCOCC1", "note": "(configuration not stated)", "Potency": "inconclusive: 18.4 µM [inhibitor, single point]"}, {"smiles": "O=C(COc1ccccc1)Nc1sc2c(c1C(=O)Nc1ccccc1)CCCCC2", "Potency": "inconclusive: 0.82 µM [inhibitor, full curve, poor fit]"}]}]}
